Results as given in PubChem BioAssay AID1159614 (National Center for Advancing Translational Sciences (NCATS), 2016).
Out of some 45,000 compounds screened, about 65 (0.1%) were called active. The call rests on the fitted dose curve; in most records, active means well fitted activation curve with a large enough effect; inconclusive means small, poorly fitted or top-dose-only effect; inactive means no such curve, though single readings can be large or run the other way. The list shows a part of the results.

target: Galactocerebrosidase (Homo sapiens) (UniProt P54803); experiment: A Novel Cell-Based Assay to Identify Small Molecules for B -Galactocerebrosidase; details: 145M-Twi-hGALC-G270D cells (Twitcher mouse brain line with human GALC G270D), HMU-beta-Gal fluorescence, 48 h; series mostly up to 57.5 µM; activation: at the top concentration; further: 0% is about no effect; nearly all actives have a fitted effect of over 65% in size
Summary of the method: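 Fluorogenic HMU-b-Gal hydrolysis (0.1 mM final, pH 5.2 citrate-phosphate with 1 mg/mL sodium taurocholate; carbonate stop buffer) measures mutant GALC activity after compound treatment of live 145M-Twi Twitcher brain cells stably carrying human GALC-G270D, with wild-type GALC line alongside; activation sought.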

Chain of UniProt P54803 (P54803 whole entry, looked up): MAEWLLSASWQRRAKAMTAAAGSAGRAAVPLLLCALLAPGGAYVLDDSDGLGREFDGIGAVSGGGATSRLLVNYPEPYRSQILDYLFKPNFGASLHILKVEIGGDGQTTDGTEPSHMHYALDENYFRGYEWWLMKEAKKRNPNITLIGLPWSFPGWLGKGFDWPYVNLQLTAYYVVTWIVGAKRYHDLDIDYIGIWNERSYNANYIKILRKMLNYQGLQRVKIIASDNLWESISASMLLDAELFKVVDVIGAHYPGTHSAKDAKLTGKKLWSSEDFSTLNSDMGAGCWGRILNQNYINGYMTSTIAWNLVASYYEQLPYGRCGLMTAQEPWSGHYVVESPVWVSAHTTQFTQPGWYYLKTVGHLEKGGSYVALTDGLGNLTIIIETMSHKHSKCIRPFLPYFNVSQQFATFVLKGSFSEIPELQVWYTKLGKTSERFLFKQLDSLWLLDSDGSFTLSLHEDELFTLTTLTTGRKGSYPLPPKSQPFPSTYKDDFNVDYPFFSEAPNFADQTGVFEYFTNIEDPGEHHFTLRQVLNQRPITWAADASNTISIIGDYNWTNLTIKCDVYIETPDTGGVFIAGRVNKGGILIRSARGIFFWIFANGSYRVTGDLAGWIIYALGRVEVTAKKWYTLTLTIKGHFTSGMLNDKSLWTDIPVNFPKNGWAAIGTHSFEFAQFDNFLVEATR

Compound	activation
Cc1ccc(Cl)cc1Nc1nn2c(=O)c3ccc(C(=O)NCc4cccs4)cc3nc2s1	inactive: -6.79%
CCCN1C(=O)c2ccccc2CC1(C)C(=O)NC1CCCCC1 (centres undefined)	inactive: -7.67%
Cc1ccc(NC(=O)N2CCN(c3nnc(C)c4c(C)n(-c5ccccc5)nc34)CC2)cc1Cl	inactive: -15.2%
Cc1ccc2nc(N(Cc3cccnc3)C(=O)c3ccc4c(c3)OCCO4)sc2c1	inactive: -18.9%
CCN(c1ccc(Cl)cc1)S(=O)(=O)c1nnc(NC(=O)C2CCCCC2)s1	inactive: -20.6%
CCOCCc1nn2c(=O)cc(COC(=O)c3cccs3)nc2s1	inactive: -6.35%
O=C(NCc1ccc2c(c1)OCO2)c1ccc2c(c1)N(Cc1ccc(F)cc1)C(=O)c1ccccc1S2=O (centres undefined)	inactive: -12.8%
NC/C=C/C(=O)O	inactive: -13.7%
Cc1ccc(C)c(CN2CCC(CNC(=O)Cn3ncc4c([nH]c5ccccc54)c3=O)CC2)c1	inactive: -9.61%
O=C(NCCCN1CCOCC1)c1ccc2c(c1)N(Cc1ccccc1)C(=O)c1ccccc1S2	inactive: -8.15%
CCn1c2ccccc2c2nnc(N3CCN(c4cccc(C)c4C)CC3)nc21	inactive: -13.6%
O=C(Cn1nc(N2CCN(c3ccccc3)CC2)ccc1=O)NCc1cccc(Cl)c1	inactive: -0.393%
Cc1cccc(OCCCCn2nnc3sc4c(c3c2=O)CCC(C)C4)c1 (centres undefined)	inactive: -14.9%
CCOc1ccccc1CNC(=O)CN1C(=O)CCCc2ccccc21	inactive: -12.4%
Cc1ccc(-n2ncc3c(NCCc4ccccc4)ncnc32)cc1C	inactive: -9.82%
CCOC(=O)CSc1nc2sc3c(c2c(=O)n1Cc1ccccc1)CC(C)CC3 (centres undefined)	inactive: -21.1%
CCOc1ccc(NC(=O)NC(C)c2c(-n3cccc3)sc(C)c2C)cc1 (centres undefined)	inactive: -8.84%
COc1ccc(-n2c(/C=C/c3cc(OC)c(OC)cc3OC)nc3cc4ccccc4cc3c2=O)cc1Cl	inactive: -13.7%
CCN(CC)CCNC(=O)C1CCN(S(=O)(=O)c2c(C)noc2/C=C/c2ccccc2F)CC1	inactive: -6.75%
Cc1ccc(OCCSc2nc3ccc(NC(=O)COc4ccc(F)cc4)cc3s2)cc1	inactive: -17.5%
O=C(COc1ccccc1)Nc1ccc(C(=O)OCc2cc(=O)n3nc(C4CC4)sc3n2)cc1	inactive: -17.2%
Cc1nc2nc(SCC(=O)NCc3ccccc3)nn2c(C)c1Cc1ccccc1Cl	inactive: -8.21%
Cc1cc(C)n2c(Nc3c(C)cccc3C)c(-c3ccsc3)nc2n1	inactive: -16.2%
O=C(CN1CCCN(Cc2ccccc2Cl)S1(=O)=O)Nc1ccc2c(c1)OCCO2	inactive: -2.2%
CCOC(=O)c1cc(-c2ccc(F)cc2)n(CC(=O)NC2CCCCC2)c1C	inactive: -21.8%

Compound	activation
O=C(Cc1cccs1)NC1CC(=O)N(c2ccccc2)C1 (centres undefined)	inactive: -2.77%
CCc1cccc(C)c1NC(=O)CN1CCCN(Cc2ccc(C)cc2)S1(=O)=O	inactive: -13%
COc1ccc(-c2c(C)nn3c(C(F)(F)F)cc(-c4ccc(Br)cc4)nc23)cc1	inactive: -9.87%
CCOc1ccc(CCNC(=O)c2ccc(CS(=O)(=O)Cc3ccccc3Cl)o2)cc1OCC	inactive: -7.6%
Cc1ccccc1CN1CCc2nc(Nc3ccc4c(c3)OCCO4)ncc2C1	inactive: -6.11%
Cc1ccc2c(c1)c1c3n2CCNC3CCC1 (centres undefined)	inactive: -7.78%
CCN(C(=O)COc1cc(=O)n(C)c2ccccc12)c1cccc(C(F)(F)F)c1	inactive: -16.2%
CCOc1ccc(-c2ccc(NS(=O)(=O)c3cc(C)c(C)cc3C)cc2)nn1	inactive: -12.5%
CCOc1ccc(C(=O)Nc2ccc(-c3nc4cc(CC)ccc4o3)cc2)cc1	inactive: -12.3%
CC(NC(=O)CCn1c(=O)c2cccn2c2ccc(F)cc21)c1ccccc1 (centres undefined)	inactive: -10.6%
O=C(c1cc2c(=O)[nH]c3ccccc3c2s1)N1CCN(c2ccc(F)cc2)CC1	inactive: -2.02%
O=C(CCn1c(=O)c2cccn2c2ccc(F)cc21)NCCc1ccccc1Cl	inactive: -12.3%
COC(=O)c1ccc(NC(=O)Nc2nnc(N(C)C3CCCCC3)s2)cc1	inactive: -13.6%
CCCOc1ccc(Nc2nc(SC)ncc2C(=O)OCC)cc1	inactive: -25%
COc1ccccc1NC(=O)Cn1c(=O)n(Cc2ccccc2)c(=O)c2ccccc21	inactive: -17.9%
COc1ccc(NC(=O)C(=O)NCCc2csc(-c3ccc(Cl)cc3)n2)cc1	inactive: -4.42%
COc1cccc2c1Oc1nc(-c3ccccc3)nc(SCC(=O)N3CCCCC3)c1C2	inactive: -12.7%
COc1cccc(NC(=O)c2oc3ccccc3c2NC(=O)C23CC4CC(CC(C4)C2)C3)c1	inactive: -20.6%
COC(=O)c1ccc(NC(=O)Cc2coc3cc(C)ccc23)cc1	inactive: -5.49%
Cc1cc(C)cc(-n2c(SCC(=O)Nc3nnc(C)s3)nc3c([nH]c4ccccc43)c2=O)c1	inactive: -22.1%
COc1ccc(-c2nc3nc(C)cc(Nc4ccc(C(C)=O)cc4)n3n2)cc1	inactive: -6.52%
Cc1coc2c(C)c3oc(=O)c(CC(=O)N4CCCCC4)c(C)c3cc12	inactive: -15.2%
COC(=O)CSc1ccc2nnc(CCNS(=O)(=O)c3ccc(C)cc3)n2n1	inactive: -9.71%
CCOC(=O)C1=C(CN2CCN(c3ccccc3F)CC2)NC(=O)NC1c1ccc(OC)cc1 (centres undefined)	inactive: -13.3%
